Most values come without repeats; read them as rough.
Assays:
[1] = test system: CHO-K1; assay: relative survival (nuclei to bead ratio vs DMSO control) (% of vehicle control); higher = more surviving cells
Experimental: (§1)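 Flow-cytometric in vitro micronucleus assay (Litron MicroFlow) in CHO-K1 cells in 96-well plates, 19 concentrations (4.5-200 µM, n=1 per concentration). Without S9, cells were exposed for 24 h and sampled at 48 h. With Aroclor 1254-induced rat liver S9, cells were exposed for 3-4 h and sampled at 27-28 h. Read-outs are %MN and %hypodiploid nuclei relative to nucleated events, and relative survival as the nuclei-to-bead ratio versus the 1% DMSO vehicle control (x100).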

[2] = test system: CHO-K1; assay: hypodiploid nuclei frequency (% of nucleated events); higher = more hypodiploid events (aneugenic)
Experimental: as §1

[3] = test system: CHO-K1; assay: micronucleus frequency (% of nucleated events); higher = more micronuclei (genotoxic)
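Throughout, for hypodiploid nuclei frequency (% of nucleated events): hypodiploid nuclei gated on a flow cytometer with 488 nm excitation after SYTOX Green staining, cultures at 37 °C, positive controls vinblastine without S9 and cyclophosphamide with S9.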
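Throughout, for micronucleus frequency (% of nucleated events): cells lysed with nuclei stained by SYTOX Green, then micronucleus-gated events counted against nucleated events by flow cytometry with 488 nm excitation.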
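Throughout, for relative survival (nuclei to bead ratio vs DMSO control): Lysed-cell nuclei stained with SYTOX Green and counted against counting beads by flow cytometry at 488 nm excitation, with vinblastine (no S9) and cyclophosphamide (plus S9) as positive controls.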

O=[N+]([O-])c1ccc(Cl)cc1 [1-Chloro-4-nitrobenzene]
Conditions	hypodiploid nuclei frequency, [2] [%]	micronucleus frequency, [3] [%]	relative survival, [1]
concentration: 4.5 (µM), S9 metabolic activation: with S9, exposure time: 3-4 hours	0.34	2	95.5
concentration: 4.5 (µM), S9 metabolic activation: without S9, exposure time: 24 hours	0.88	1.94	90.8
concentration: 5.63 (µM), S9 metabolic activation: with S9, exposure time: 3-4 hours	0.26	1.88	88.7
concentration: 5.63 (µM), S9 metabolic activation: without S9, exposure time: 24 hours	0.62	1.92	113
concentration: 7.04 (µM), S9 metabolic activation: with S9, exposure time: 3-4 hours	0.18	0.86	70.5
concentration: 7.04 (µM), S9 metabolic activation: without S9, exposure time: 24 hours	0.52	1.9	113
concentration: 8.8 (µM), S9 metabolic activation: with S9, exposure time: 3-4 hours	0.26	1.66	79.5
concentration: 8.8 (µM), S9 metabolic activation: without S9, exposure time: 24 hours	1.12	2	116
concentration: 11 (µM), S9 metabolic activation: with S9, exposure time: 3-4 hours	0.22	1.16	71.4
concentration: 11 (µM), S9 metabolic activation: without S9, exposure time: 24 hours	0.76	2.44	109
concentration: 13.7 (µM), S9 metabolic activation: with S9, exposure time: 3-4 hours	0.36	1.48	79
concentration: 13.7 (µM), S9 metabolic activation: without S9, exposure time: 24 hours	0.88	2.54	98.9
concentration: 17.2 (µM), S9 metabolic activation: with S9, exposure time: 3-4 hours	0.2	1.36	71.4
concentration: 17.2 (µM), S9 metabolic activation: without S9, exposure time: 24 hours	0.62	2.1	114
concentration: 21.5 (µM), S9 metabolic activation: with S9, exposure time: 3-4 hours	0.18	1.16	87.7
concentration: 21.5 (µM), S9 metabolic activation: without S9, exposure time: 24 hours	0.56	2.54	113
concentration: 26.8 (µM), S9 metabolic activation: with S9, exposure time: 3-4 hours	0.24	1.3	71.6
concentration: 26.8 (µM), S9 metabolic activation: without S9, exposure time: 24 hours	0.76	1.56	103
concentration: 33.6 (µM), S9 metabolic activation: with S9, exposure time: 3-4 hours	0.18	1.44	98.9
concentration: 33.6 (µM), S9 metabolic activation: without S9, exposure time: 24 hours	0.74	2.32	102
concentration: 41.9 (µM), S9 metabolic activation: with S9, exposure time: 3-4 hours	0.28	1.32	116
concentration: 41.9 (µM), S9 metabolic activation: without S9, exposure time: 24 hours	0.7	1.8	104
concentration: 52.4 (µM), S9 metabolic activation: with S9, exposure time: 3-4 hours	0.32	1.32	147
concentration: 52.4 (µM), S9 metabolic activation: without S9, exposure time: 24 hours	0.86	1.7	112
concentration: 65.5 (µM), S9 metabolic activation: with S9, exposure time: 3-4 hours	0.34	1.22	91
concentration: 65.5 (µM), S9 metabolic activation: without S9, exposure time: 24 hours	0.8	1.86	111
concentration: 81.9 (µM), S9 metabolic activation: with S9, exposure time: 3-4 hours	0.28	1.42	117
concentration: 81.9 (µM), S9 metabolic activation: without S9, exposure time: 24 hours	0.86	1.8	113
concentration: 102 (µM), S9 metabolic activation: with S9, exposure time: 3-4 hours	0.3	1.4	108
concentration: 102 (µM), S9 metabolic activation: without S9, exposure time: 24 hours	1.02	2.16	103
concentration: 128 (µM), S9 metabolic activation: with S9, exposure time: 3-4 hours	0.28	1.56	89.5
concentration: 128 (µM), S9 metabolic activation: without S9, exposure time: 24 hours	1.22	2.26	104
concentration: 160 (µM), S9 metabolic activation: with S9, exposure time: 3-4 hours	0.28	1.06	113
concentration: 160 (µM), S9 metabolic activation: without S9, exposure time: 24 hours	1.28	2.86	105
concentration: 200 (µM), S9 metabolic activation: with S9, exposure time: 3-4 hours	0.18	1.1	122
concentration: 200 (µM), S9 metabolic activation: without S9, exposure time: 24 hours	1.44	2.86	98

Reference: the supplement of paper PMC9151546
